Among the data in patent publication EP4814014A1, “BINDING MOLECULE AND ANTIBODY-DRUG CONJUGATE AND USE THEREOF” (priority 2023, dated 2025) are Kd, koff and kon values, retold here.

One may read the Kd as the constant that tells how readily two partners part at equilibrium. One may read the koff as the first-order rate constant of dissociation. Usually kon stands for the rate constant with which the complex forms.

Experiment in all cases: SPR, antigen amine-coupled on GLM chip, antibody injected, 1:1 model
Background: Surface plasmon resonance follows binding to a sensor surface in real time, without labels.

Assay [1] has as its target T1, human EGFR-his (ECD, Met1-Ser645) (human, UniProt P00533 in part).
T1 construct: range 1-645; Bought; range as printed includes Met1

In assay [2] the target is T2, cynomolgus monkey EGFR-his (ECD, Met1-Ser645) (cynomolgus monkey, UniProt A0A2K5WK39 1-645).
T2 construct: range 1-645; Bought; range as printed includes Met1

The target in assay [3] is T3, cynomolgus monkey cMet-his (ECD, Met1-Thr932) (cynomolgus monkey, UniProt A0A2K5UM36 25-932).
T3 construct: Bought; range as printed includes Met1

Assay [4] concerns the target T4, human cMet-his (ECD, Met1-Thr932) (human, UniProt P08581 25-932).
T4 construct: Bought; range as printed includes Met1
T4 sequence (P08581 25-932): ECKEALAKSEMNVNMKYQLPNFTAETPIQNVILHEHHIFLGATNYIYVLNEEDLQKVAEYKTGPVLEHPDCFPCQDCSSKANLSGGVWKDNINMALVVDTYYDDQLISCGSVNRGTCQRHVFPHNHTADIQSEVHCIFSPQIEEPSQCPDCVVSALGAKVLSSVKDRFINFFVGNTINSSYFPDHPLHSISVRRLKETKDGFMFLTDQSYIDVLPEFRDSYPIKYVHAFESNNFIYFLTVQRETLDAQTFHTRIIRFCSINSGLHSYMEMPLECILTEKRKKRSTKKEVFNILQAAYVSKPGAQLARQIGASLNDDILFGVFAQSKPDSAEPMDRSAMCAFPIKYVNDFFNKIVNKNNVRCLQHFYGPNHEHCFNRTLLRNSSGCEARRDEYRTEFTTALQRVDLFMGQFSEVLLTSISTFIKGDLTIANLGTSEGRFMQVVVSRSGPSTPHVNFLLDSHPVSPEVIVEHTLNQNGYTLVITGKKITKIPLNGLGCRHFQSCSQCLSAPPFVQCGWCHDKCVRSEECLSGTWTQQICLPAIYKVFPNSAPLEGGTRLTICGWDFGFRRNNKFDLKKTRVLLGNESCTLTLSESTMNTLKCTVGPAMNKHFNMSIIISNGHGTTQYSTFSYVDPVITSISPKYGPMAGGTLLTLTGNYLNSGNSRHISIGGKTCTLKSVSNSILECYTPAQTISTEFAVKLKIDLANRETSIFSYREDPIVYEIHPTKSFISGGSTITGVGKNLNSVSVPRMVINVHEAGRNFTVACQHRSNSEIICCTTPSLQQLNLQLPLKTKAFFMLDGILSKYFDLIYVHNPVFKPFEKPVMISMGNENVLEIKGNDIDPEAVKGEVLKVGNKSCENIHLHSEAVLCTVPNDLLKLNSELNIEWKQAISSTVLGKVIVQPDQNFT

B1: V-23-Fc (bispecific antibody)
chain 1: EVQLLESGGGLVQPGGSLRLSCAASGLTFSYYAMAWFRQAPGKEREFVAAINWNQGNTYNTDSVKGRFTISRDNSKNTVYLQMNSLTPEDTAVYYCAVRYNQASYLVARSSDYNYWGQGTLVTVSS[human IgG1 Fc with changes not printed]
chain 2: QSQLVESGGGLVKPGGSLRLSCVASGFTISRSIMSWYRQAPGKERDWVASIGSAGNTNYVDSVKGRFTISRDNAKNSLYLQMNSLRAEDTAVYYCKTTLAVSFSEYWGQGTLVTVSSGGGGSGGGGSEVQLVESGGGLVQPGGSLRLSCTASGNIFSSYHMGWFRQAPGKQREFIAYITTREITNYADSVKGRFTISRDNSKNTLYLQMNSLRAEDTAVYYCIADQSREIRRSWGQGTLVTVSS[human IgG1 Fc with changes not printed]
notes: Double-chain trispecific anti-EGFR/cMet antibody
Regarding B1, the dissociation constant Kd is 9.63 nM in assay [1], 11.1 nM in assay [2], 2.33 nM in assay [3] and 75.2 nM in assay [4]. Moreover, the koff in assay [1] was found to be 0.000202 s⁻¹; in assay [2], 0.000314 s⁻¹; in assay [3] it was 0.000225 s⁻¹; in assay [4], 0.00215 s⁻¹. In addition, the on-rate constant (kon) in assay [1] was 21000 M⁻¹ s⁻¹; in assay [2], 28200 M⁻¹ s⁻¹; in assay [3], 96800 M⁻¹ s⁻¹; in assay [4] it was 28600 M⁻¹ s⁻¹.

B2: V-17-Fc (bispecific antibody)
chain 1: QVQLVESGGGLVQPGGSLRLSCAASGRTGSLHAMGWFRQAPGKERERVATLRLSDVSAVTADSVKGRFTISTDNSKNTLYLQMNSLRAEDTAVYYCTASRSPSGIRYYKPDYWGQGTLVTVSS[human IgG1 Fc with changes not printed]
chain 2: QSQLVESGGGLVKPGGSLRLSCVASGFTISRSIMSWYRQAPGKERDWVASIGSAGNTNYVDSVKGRFTISRDNAKNSLYLQMNSLRAEDTAVYYCKTTLAVSFSEYWGQGTLVTVSSGGGGSGGGGSEVQLVESGGGLVQPGGSLRLSCTASGNIFSSYHMGWFRQAPGKQREFIAYITTREITNYADSVKGRFTISRDNSKNTLYLQMNSLRAEDTAVYYCIADQSREIRRSWGQGTLVTVSS[human IgG1 Fc with changes not printed]
notes: as for B1
In assay [3], B2 displayed a Kd of 1.95 nM, an off-rate (koff) of 0.000154 s⁻¹ and a kon of 79300 M⁻¹ s⁻¹. Besides, in assay [4], the dissociation constant Kd was 1.4 nM, the koff is 0.000137 s⁻¹ and the on-rate (kon) came out at 97800 M⁻¹ s⁻¹.

B3: V-20-Fc (bispecific antibody)
chain 1: EVQLVESGGGLVQPGGSLRLSCSASGTIIGTYTMAWYRQAPGKQREMVAIITPGGGSHHADSVKGRFTISRDNSKNTLYLQMSSLRAEDTAVYYCNAKARWGTTEYWGQGTLVTVSS[human IgG1 Fc with changes not printed]
chain 2: QSQLVESGGGLVKPGGSLRLSCVASGFTISRSIMSWYRQAPGKERDWVASIGSAGNTNYVDSVKGRFTISRDNAKNSLYLQMNSLRAEDTAVYYCKTTLAVSFSEYWGQGTLVTVSSGGGGSGGGGSEVQLVESGGGLVQPGGSLRLSCTASGNIFSSYHMGWFRQAPGKQREFIAYITTREITNYADSVKGRFTISRDNSKNTLYLQMNSLRAEDTAVYYCIADQSREIRRSWGQGTLVTVSS[human IgG1 Fc with changes not printed]
notes: as for B1
On to B3, for which, in assay [3], the affinity, expressed as Kd, was 4.62 nM; the koff is 0.000199 s⁻¹; the kon was determined as 43000 M⁻¹ s⁻¹. In assay [4], binding was put at a Kd of 2.37 nM, the koff was determined as 0.000365 s⁻¹ and the on-rate constant (kon) was determined as 154000 M⁻¹ s⁻¹.
